This is an account of results in a collection of fitness landscapes (doi:10.1126/science.1257360).

This is one part of the list.

B1: PhoQ; a variant is named by its letters at X, in order, P23837 (parent)
chain: MKKLLRLFFPLSLRVRFLLATAAVVLVLSLAYGMVALIGYSVSFDKTTFRLLRGESNLFYTLAKWENNKLHVELPENIDKQSPTMTLIYDENGQLLWAQRDVPWLMKMIQPDWLKSNGFHEIEADVNDTSLLLSGDHSIQQQLQEVREDDDDAEMTHSVAVNVYPATSRMPKLTIVVVDTIPVELKSSYMVWSWFIYVLSANLLLVIPLLWVAAWWSLRPIEALAKEVRELEEHNRELLNPATTRELTSLVRNLNRLLKSERERYDKYRTTLTDLTHSLKTPLXXLQXXLRSLRSEKMSVSDAEPVMLEQISRISQQIGYYLHRASMRGGTLLSRELHPVAPLLDNLTSALNKVYQRKGVNISLDISPEISFVGEQNDFVEVMGNVLDNACKYCLEFVEISARQTDEHLYIVVEDDGPGIPLSKREVIFDRGQRVDTLRPGQGVGLAVAREITEQYEGKIVAGESMLGGARMEVIFGRQHSAPKDE

The variants in the assay derive from B1. Put plainly: enrichment ratio after two sorts for PhoP signalling (ratio (wild type AVST 3.29)); higher = more functional. The note with it: with PhoP (E. coli).
PGDR: the enrichment ratio is not above 0.25.
Under GEHM stands not above 0.25; under IINK, not above 0.25; under SSKS, not above 0.25.
Under INQH stands not above 0.25; under LADY, not above 0.25; under YMPE, not above 0.25.
Under MFYH stands not above 0.25.
As to YQYI, the enrichment ratio is not above 0.25.
Under YHRF stands not above 0.25; under DVMS, not above 0.25.
Under HVML stands not above 0.25; under LWRA, not above 0.25.
Consider NLFP, for which the enrichment ratio was not above 0.25.
Under FNCQ stands not above 0.25; under DPMI, not above 0.25; under FDPS, not above 0.25.
Under PHRR stands not above 0.25; under VPDK, not above 0.25; under YKMS, not above 0.25.
Under PFTA stands not above 0.25; under GDNL, not above 0.25.
As to ADPE, the enrichment ratio was not above 0.25.
Under PVLM stands not above 0.25.
Under MTVH stands 0.706.
As for DDML, the enrichment ratio is not above 0.25.
Under YWAG stands not above 0.25; under NYLT, not above 0.25.
Under KWMY stands not above 0.25; under YQTN, not above 0.25; under NKAF, not above 0.25.
Under PMCA stands not above 0.25; under EVMN, not above 0.25.
As to TDSY, the enrichment ratio came to 0.762.
For the variant IKET, the enrichment ratio is not above 0.25.
Under SHAC stands not above 0.25; under PYWQ, not above 0.25; under FKGV, not above 0.25.
Turning to PSKF, the enrichment ratio was not above 0.25.
Under TGIF stands not above 0.25; under LWHD, not above 0.25; under TKCV, 30.6.
Under YISK stands 0.435; under LWVC, not above 0.25; under YADN, not above 0.25.
Under EIYC stands not above 0.25; under GFIN, not above 0.25.
For DKWF, the enrichment ratio was not above 0.25.
Under SCWP stands not above 0.25.
Under PMIF stands not above 0.25; under VKFI, not above 0.25; under GQPY, not above 0.25.
Under AVYP stands not above 0.25; under DECI, not above 0.25.
On to NCIV, for which the enrichment ratio is not above 0.25.
Under AHHQ stands not above 0.25.
Under ADGV stands not above 0.25.
CLLP: the enrichment ratio is not above 0.25.
Under TTRR stands not above 0.25.
In the case of MLAC, the enrichment ratio is not above 0.25.
Under NGWL stands not above 0.25; under SDQV, not above 0.25; under GCLY, 8.42.
Under RGSM stands not above 0.25.
Under HWNT stands not above 0.25.
Consider WSSL, for which the enrichment ratio is not above 0.25.
Regarding VHHD, the enrichment ratio is not above 0.25.
With VSSS, the enrichment ratio is not above 0.25.
Under NCNW stands not above 0.25; under TKVH, 12.3; under HECH, 12.7.
Under TWSM stands not above 0.25.
Under RWGV stands not above 0.25; under DDSG, not above 0.25.
Take MFEI: the enrichment ratio was not above 0.25.
Under DGPF stands not above 0.25; under HAVL, not above 0.25; under FWLS, 0.265.
In the case of YSDK, the enrichment ratio was not above 0.25.
Under YFCM stands not above 0.25; under WCWA, not above 0.25; under LYIM, not above 0.25.
Under SSEP stands not above 0.25; under HAKY, not above 0.25.
On to DCTG, for which the enrichment ratio is not above 0.25.
For TIHG, the enrichment ratio was found to be 7.05.
Consider MSNM, for which the enrichment ratio was not above 0.25.
Under MVQL stands not above 0.25; under HPPH, not above 0.25; under YFPS, not above 0.25.
Under HVFT stands not above 0.25; under LRDF, not above 0.25; under LRKV, not above 0.25.
Under SDVH stands 5.46; under AIDP, not above 0.25; under FQCK, not above 0.25.
With QKRG, the enrichment ratio is not above 0.25.
Under YGGT stands not above 0.25; under ESME, not above 0.25; under KSVP, not above 0.25.
Under PGHQ stands not above 0.25; under DVIP, not above 0.25.
Under ASGY stands 3.18; under DHCQ, not above 0.25; under KHTI, not above 0.25.
Regarding HPPE, the enrichment ratio was not above 0.25.
Under PCCV stands not above 0.25; under FQED, not above 0.25; under RMPS, not above 0.25.
Under HNRI stands not above 0.25; under LHYA, not above 0.25; under LPCH, not above 0.25.
Regarding MEYY, the enrichment ratio is 18.8.
Under VDYG stands not above 0.25; under FWGT, not above 0.25; under FSLG, 8.53.
Under VNLV stands 8.16.
Regarding TQNR, the enrichment ratio was not above 0.25.
As for TNQY, the enrichment ratio came to 9.69.
Under RQNN stands not above 0.25.
Under RNCR stands not above 0.25; under LSAH, not above 0.25; under YKQL, not above 0.25.
ELWR: the enrichment ratio is not above 0.25.
Under MCIS stands not above 0.25; under WISM, not above 0.25; under FTIK, not above 0.25.
With ADCW, the enrichment ratio was not above 0.25.
Under APPP stands not above 0.25; under DKKF, not above 0.25; under QVSE, not above 0.25.
Under RIAD stands not above 0.25; under DHAL, not above 0.25; under WVAI, not above 0.25.
In the case of RPRG, the enrichment ratio is not above 0.25.
As to QQLT, the enrichment ratio is not above 0.25.
Under LQSM stands not above 0.25; under FRCA, not above 0.25.
Under WGID stands not above 0.25.
Under MQNN stands not above 0.25; under AYAR, not above 0.25.
Take YAFH: the enrichment ratio is not above 0.25.
Under PTHH stands not above 0.25; under SQNE, not above 0.25; under FKHE, not above 0.25.
Under STIM stands 15.3; under GDCI, not above 0.25.
Under KMIN stands not above 0.25; under TWGI, not above 0.25; under FRPP, not above 0.25.
As for ICDY, the enrichment ratio was not above 0.25.
As to MTNA, the enrichment ratio was not above 0.25.
Turning to LDLM, the enrichment ratio is not above 0.25.
Under ANHV stands not above 0.25; under DNVW, not above 0.25.
Under VCKA stands not above 0.25; under QRKG, not above 0.25.
Take PVHN: the enrichment ratio is not above 0.25.
Under LCFL stands not above 0.25; under WPDD, not above 0.25.
Under ICIT stands not above 0.25.
Under YRAM stands not above 0.25; under WKPR, not above 0.25; under QTSC, 2.29.
As to DMIN, the enrichment ratio is not above 0.25.
Under QATP stands not above 0.25.
With DVVR, the enrichment ratio is not above 0.25.
Under TYSA stands 7.8; under KRQD, not above 0.25.
Under LEQM stands not above 0.25; under GMPM, not above 0.25; under GSNM, not above 0.25.
Under RATR stands not above 0.25.
For the variant FTWG, the enrichment ratio was not above 0.25.
Under RIEI stands not above 0.25; under TVSE, 14.1; under CFYQ, not above 0.25.
Under GERC stands not above 0.25; under GTTV, not above 0.25.
For the variant TYYQ, the enrichment ratio was not above 0.25.
Under STDN stands not above 0.25; under FHLI, not above 0.25.
With NHEL, the enrichment ratio is not above 0.25.
Under LPHV stands not above 0.25; under FDQW, not above 0.25.
Under TPAQ stands not above 0.25; under SAHN, not above 0.25; under FCLW, not above 0.25.
Under KRDS stands not above 0.25; under YFSF, not above 0.25.
Consider QLDL, for which the enrichment ratio worked out at 1.16.
Regarding LLTT, the enrichment ratio is not above 0.25.
Consider SAKF, for which the enrichment ratio was not above 0.25.
Under RLHC stands not above 0.25.
Under VWYS stands not above 0.25; under VWCY, not above 0.25; under EQPF, not above 0.25.
Under YPIY stands not above 0.25; under GDKV, not above 0.25; under EKVD, not above 0.25.
As to CCCG, the enrichment ratio is not above 0.25.
Under NLDA stands not above 0.25.
Under MDTM stands not above 0.25.
Take LTTS: the enrichment ratio is not above 0.25.
Under WYFE stands not above 0.25; under PIYW, not above 0.25; under LWFA, 0.467.
As to EGPS, the enrichment ratio is not above 0.25.
Under NHAF stands not above 0.25.
Under LQWI stands not above 0.25; under LDLN, not above 0.25.
Under ETVG stands not above 0.25; under HQCR, not above 0.25; under SFHC, not above 0.25.
On to RRRM, for which the enrichment ratio was not above 0.25.
Take QRRF: the enrichment ratio was not above 0.25.
Under TLDE stands not above 0.25; under GETP, not above 0.25.
Under LGDN stands not above 0.25; under ENVR, not above 0.25.
Under GPSC stands not above 0.25; under PFHC, not above 0.25; under QKLV, 2.4.
TQTN: the enrichment ratio is 15.4.
KSGR: the enrichment ratio is not above 0.25.
Under QEDI stands not above 0.25; under TYTM, 4.58; under INPS, not above 0.25.
Turning to IKFK, the enrichment ratio was not above 0.25.
Regarding KSVK, the enrichment ratio is not above 0.25.
Under LMWK stands not above 0.25; under IVCI, not above 0.25.
Under IETY stands not above 0.25; under FFCF, not above 0.25; under NDWP, not above 0.25.
With FGIC, the enrichment ratio is not above 0.25.
As to TCAH, the enrichment ratio amounted to 11.7.
Under RDVC stands not above 0.25.
Under IHNF stands not above 0.25.
Turning to RGMS, the enrichment ratio is not above 0.25.
Under NITF stands not above 0.25.
For the variant FNEV, the enrichment ratio is not above 0.25.
Under AKWK stands not above 0.25; under KYCH, not above 0.25.
In the case of YRTG, the enrichment ratio was not above 0.25.
Under NRMY stands not above 0.25; under LTIC, not above 0.25.
Under KLFM stands not above 0.25.
Under LGMW stands not above 0.25; under MQSQ, not above 0.25.
Turning to QANM, the enrichment ratio was not above 0.25.
Take RVVM: the enrichment ratio is not above 0.25.
Under RLDV stands not above 0.25.
Under WIVC stands not above 0.25; under VTVN, not above 0.25.
Under GQPG stands not above 0.25.
On to TQSQ, for which the enrichment ratio was 8.74.
Turning to QGKC, the enrichment ratio is not above 0.25.
Under DYRV stands not above 0.25; under PCGD, not above 0.25.
Under RYEH stands not above 0.25; under IWMM, not above 0.25.
With DMKM, the enrichment ratio was not above 0.25.
As for TYLQ, the enrichment ratio is not above 0.25.
Under FLVE stands not above 0.25; under YFYP, not above 0.25.
Take ITWQ: the enrichment ratio was not above 0.25.
Under MYNW stands not above 0.25; under VPDG, not above 0.25.
Under DMSC stands not above 0.25; under LHGG, not above 0.25; under ACRL, not above 0.25.
Under SMCV stands 9.73; under PVKA, not above 0.25; under YPMN, not above 0.25.
Take FEWI: the enrichment ratio was not above 0.25.
Under NLIQ stands not above 0.25; under EIRT, not above 0.25; under HYTM, not above 0.25.
Under HYVH stands not above 0.25.
Under GNFN stands not above 0.25; under HASL, not above 0.25; under LKEV, not above 0.25.
For the variant EDMA, the enrichment ratio is not above 0.25.
For KLPP, the enrichment ratio was not above 0.25.
Under FKLW stands not above 0.25; under RTNY, not above 0.25.
Under ESRW stands not above 0.25; under MLRF, not above 0.25; under SMPY, not above 0.25.
On to GDHC, for which the enrichment ratio was not above 0.25.
Under DTGA stands not above 0.25; under RALP, not above 0.25.
Under SKMS stands 5.22; under AQPY, not above 0.25; under YVMA, 0.597.
Under DKPR stands not above 0.25.
Take PKQN: the enrichment ratio was not above 0.25.
Under IGYH stands not above 0.25; under WVYI, not above 0.25; under IWKP, not above 0.25.
Under DQYG stands not above 0.25; under LIEN, not above 0.25; under QAKD, not above 0.25.
Under RWIC stands not above 0.25.
With FRQM, the enrichment ratio was not above 0.25.
